According to PubChem BioAssay AID588342 (National Center for Advancing Translational Sciences (NCATS), 2011):
Values joined by “and” are separate entries in the source; they are usually repeats but may differ in a detail not shown here. Identical values can stand only once. In all, about 360,000 compounds went through this assay and about 25,000 (6.9%) were called active. The inconclusive results got no clear call from the source; some entries with a clear call stand among them for comparison. The call rests on the fitted dose curve; in most records, active means well fitted inhibition curve with a large enough effect; inconclusive means small, poorly fitted or top-dose-only effect; inactive means flat fitted curve, though single readings scatter. Where the call is inconclusive, the potency comes from a doubtful curve fit.

biological target: Luciferin 4-monooxygenase (Photinus pyralis) (UniProt P08659); experiment: qHTS profiling assay for firefly luciferase inhibitor/activator using purifed enzyme and Km concentrations of substrates (counterscreen for miR-21 project); conditions: purified FLuc, luminescence inhibition; series mostly up to 57.5 µM; activity change, negative = inhibition: at the top concentration; further: nearly all actives have a fitted effect of over 55% in size;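 on activity change, negative = inhibition: plate controls were vehicle for no effect and reference inhibitor for full effect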
Sequence of UniProt P08659 (P08659 whole entry, looked up): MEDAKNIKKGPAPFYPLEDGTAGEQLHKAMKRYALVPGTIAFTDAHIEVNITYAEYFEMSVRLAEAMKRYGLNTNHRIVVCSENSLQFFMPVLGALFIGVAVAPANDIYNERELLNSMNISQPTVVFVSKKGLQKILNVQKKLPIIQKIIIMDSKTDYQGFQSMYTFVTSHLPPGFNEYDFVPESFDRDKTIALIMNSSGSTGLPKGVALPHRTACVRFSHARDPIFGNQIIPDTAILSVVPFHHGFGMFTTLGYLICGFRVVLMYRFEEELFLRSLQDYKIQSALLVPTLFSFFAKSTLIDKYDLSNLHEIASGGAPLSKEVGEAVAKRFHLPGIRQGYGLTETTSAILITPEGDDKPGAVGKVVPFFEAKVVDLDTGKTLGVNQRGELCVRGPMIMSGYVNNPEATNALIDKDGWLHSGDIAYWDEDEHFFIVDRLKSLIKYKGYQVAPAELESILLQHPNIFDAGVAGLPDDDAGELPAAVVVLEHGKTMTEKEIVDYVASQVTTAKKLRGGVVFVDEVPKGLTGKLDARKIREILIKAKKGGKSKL
Summary of the method: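 Purified P. pyralis luciferase (10nM final) with 10uM D-luciferin and 10uM ATP (Km levels) in 50mM Tris acetate pH 7.5, 10mM Mg acetate, 0.01% Tween-20, 0.05% BSA; qHTS 6-point titration, ~60 µM downward; luminescence read.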
Potency means the concentration at half of the fitted maximal effect; tags describe the fitted curve by direction and shape.

SMILES	Potency	activity change, negative = inhibition
Cc1cn2c(=O)cc(COC(=O)c3cccc(NC(=O)c4ccc(C(C)(C)C)cc4)c3)nc2s1	active: 0.757 µM	–
COc1ccc(-c2oc3ncn4nc(-c5ccccc5O)nc4c3c2-c2ccc(OC)cc2)cc1	–	inactive: -1.29%
O=C(c1ccccc1)c1ccc(OC(=O)C2CCCCC2)cc1	active: 13.5 µM	–
Cc1ccccc1-c1nc2scc(CCNS(=O)(=O)c3ccccc3)n2n1	–	inactive: -11.7%
Cc1nn2c(=O)cc(COC(=O)c3cccc(NC(=O)CCc4ccccc4)c3)nc2s1	inconclusive: 16.9 µM [inhibitor, single point]	–
c1ccc2sc(SCc3ccc(-c4nnco4)cc3)nc2c1	active: 4.78 µM	–
O=C(O)c1ccc2nc3c(nc2c1)-c1ccccc1C3=O	active: 15.1 µM	–
c1ccc2c(c1)Cc1cc3ccccc3nc1-2	active: 0.953 µM	–
COC(=O)Cn1c2ccc(C)cc2c2nc(C)sc21	inconclusive: 16.9 µM [inhibitor, partial curve, poor fit]	–
O=C(Nc1nc(-c2ccccn2)cs1)C1COc2ccccc2O1 (stereo not drawn)	inconclusive: 26.9 µM [inhibitor, single point]	–
O=C(Nc1ccc(Br)cc1)C1CC(c2c(F)cccc2Cl)=NO1 (stereo not drawn)	inconclusive: 37.9 µM [inhibitor, partial curve, poor fit]	–
CCCNc1nc(C)cc(-c2cc(-c3ccccc3)on2)n1	inconclusive: 19 µM [inhibitor, partial curve]	–
O=C(O)c1cccc(Nc2nc(-c3cc4ccccc4oc3=O)cs2)c1	active: 6.01 µM	–
COc1cccc(Nc2ccc3cc(S(=O)(=O)N4CCC(C)CC4)ccc3n2)c1	–	inactive: -0.96%
CCCOc1cccc(C(=O)Nc2cccc(-c3nc4ncccc4o3)c2C)c1	inconclusive: 23.9 µM [inhibitor, partial curve, poor fit]	–
COC(OC)c1ccnc(-c2ccc(OC(=O)c3ccccc3)cc2)n1	active: 16.9 µM	–
CCCCOC(=O)Nc1ccc2c(C)cc(=O)oc2c1	active: 6.01 µM	–
Cn1c(CNC(=O)CNC(=O)Cc2ccc(Cl)cc2)cc(=O)n(C)c1=O	–	inactive: 1.36%
Cc1nnc(NC(=O)c2ccc(S(=O)(=O)C(F)F)cc2)s1	active: 5.36 µM	–
Cc1ccc(Cl)cc1N1CCN(C(=O)c2ccc(NC(=O)c3nsc4ccccc34)cc2)CC1	active: 6.01 µM	–
Cc1cc(C(=O)CSc2nnc(N)s2)c(C)n1Cc1cccs1	active: 0.849 µM	–
CSc1cccc(NS(=O)(=O)c2cccs2)c1	–	inactive: 1.65%
Cc1cccc(C(=O)NNC(=O)C23CC4CC(CC(C4)C2)C3)c1O	active: 15.1 µM	–
Cc1nn(S(=O)(=O)c2ccc(C(C)(C)C)cc2)c(C)c1S(=O)(=O)N1CCCCCC1	inconclusive: 37.9 µM [inhibitor, partial curve, poor fit]	–
Cc1cc(C)cc(Nc2ncnc3nc[nH]c23)c1	inconclusive: 37.9 µM [inhibitor, partial curve, poor fit]	–

SMILES	Potency	activity change, negative = inhibition
O=C(N/N=C/c1cccc([N+](=O)[O-])c1)c1ccncc1	inconclusive: 42.6 µM [inhibitor, partial curve, poor fit]	–
Cc1ccc(NC(=O)c2oc3ccc(S(=O)(=O)N4CCC5(CC4)OCCO5)cc3c2C)cc1C	inconclusive: 16.9 µM [inhibitor, partial curve, poor fit] and inconclusive: 21.3 µM [inhibitor, partial curve]	–
Cc1ccc(OCC(=O)Nc2cccc(-c3nc4ccccc4s3)c2)cc1	active: 9.53 µM	–
Cc1c(C(=O)NCc2ccccc2)sc2nc3n(c(=O)c12)CCCCC3	inconclusive: 12 µM [inhibitor, partial curve]	–
Cc1ccc(-c2c3c(nc4sc(C(N)=O)c(N)c24)CCC3)cc1	active: 16.9 µM	–
N/C(=N\OC(=O)c1cccc2ccccc12)c1ccc(Br)cc1	inconclusive: 26.9 µM [inhibitor, single point]	–
CCOC(=O)C1(N(CC)CC)Sc2cc(C)ccc2NC1=O (stereo not drawn)	–	inactive: -1.62%
CCc1ccc(-c2cc3c(=O)n(CC(=O)N4CCCC4)nc(C)n3n2)cc1	inconclusive: 7.57 µM [inhibitor, full curve]	–
Cc1ccccc1-c1nnc(SCCC(=O)N2CCOCC2)o1	inconclusive: 30.1 µM [inhibitor, partial curve, poor fit]	–
NC(=O)CSc1nnc(NC(=O)c2ccc(Br)o2)s1	active: 16.9 µM	–
O=C(CSc1nnc2c(n1)[nH]c1ccccc12)Nc1ccc2c(c1)OCO2	inconclusive: 13.5 µM [inhibitor, partial curve]	–
CC(=O)Oc1ccc(N(C(C)=O)S(=O)(=O)c2ccc(Cl)cc2)c2ccccc12	–	inactive: -10.2%
Clc1cccc(N2CCN(c3nc4ccccc4n4nnnc34)CC2)c1	–	inactive: 1.52%
COc1ccc(C(=O)Nc2ccc3oc(-c4cccnc4)nc3c2)cc1	inconclusive: 3.79 µM [inhibitor, partial curve, poor fit]	–
O=C(O)c1ccc(N/N=C/c2cc3cc4c(cc3nc2Cl)OCCO4)cc1	active: 0.0239 µM	–
Cc1ccc(C(=O)c2oc3ccccc3c2N)cc1	active: 16.9 µM	–
O=C(N/N=C/c1ccco1)c1cccc(N2Cc3ccccc3C2)c1	inconclusive: 23.9 µM [inhibitor, partial curve]	–
CC(=O)c1cccc(NC(=S)NC(=O)c2cncc(Br)c2)c1	inconclusive: 23.9 µM [inhibitor, single point]	–
CCc1c(C)nc(SCC(=O)N2CCCCC2C)[nH]c1=O (stereo not drawn)	–	inactive: -7.89%
O=C1NN(c2ccc(Cl)cc2)C(=O)/C1=C\c1ccc(-c2cccc(C(=O)O)c2)o1	active: 16.9 µM	–
O=C(O)C1CC(=O)N(c2ccc(OCc3ccccc3)cc2)C1 (stereo not drawn)	inconclusive: 37.9 µM [inhibitor, partial curve, poor fit]	–
COCCN(C(=O)c1cc2c(s1)CCCCC2)c1c(N)n(Cc2ccccc2)c(=O)[nH]c1=O	inconclusive: 37.9 µM [inhibitor, partial curve, poor fit]	–
CCn1c(Cc2cccs2)nnc1SCC(=O)c1ccc(C)cc1	inconclusive: 21.3 µM [inhibitor, single point]	–
CCOc1ccc(NC(=O)Cn2sc3nc(C)cc(C)c3c2=O)cc1	inconclusive: 8.49 µM [inhibitor, partial curve]	–
O=C(CSC1=NS(=O)(=O)c2ccccc21)Nc1ccccc1	inconclusive: 13.5 µM [inhibitor, partial curve, poor fit]	–

SMILES	Potency	activity change, negative = inhibition
COc1ccc(-n2c(=O)[nH]cc(C(=O)Nc3ccc4c(c3)OCCO4)c2=O)cc1OC	inconclusive: 26.9 µM [inhibitor, single point]	–
O=[N+]([O-])C(=C1NCCN1)C(Cl)=C(Cl)Cl	–	inactive: -1.6%
Cc1ccc2nc(-c3ccc(NC(=O)CSc4ccccc4)cc3)[nH]c2c1	inconclusive: 2.69 µM [inhibitor, full curve]	–
O=C(CN1CCOCC1)Nc1nc2ccc(Cl)cc2s1	inconclusive: 30.1 µM [inhibitor, partial curve, poor fit]	–
O=C(c1ccc2ccccc2c1)C1CCCN(S(=O)(=O)c2cccnc2)C1 (stereo not drawn)	inconclusive: 23.9 µM [inhibitor, single point]	–
Cc1cccc(-c2noc(CCc3ccccc3)n2)c1	active: 12 µM	–
O=C1C2C3C=CC(C3)C2C(=O)N1/N=C/c1cn(Cc2ccc(F)cc2)c2ccccc12 (stereo not drawn)	inconclusive: 13.5 µM [inhibitor, partial curve]	–
O=C(Nc1cccnc1Cl)c1cc(-c2ccc(O)cc2)on1	inconclusive: 2.69 µM [inhibitor, full curve]	–
CC(=O)Nc1cccc(-c2csc(Nc3cc(C)ccn3)n2)c1	active: 2.69 µM	–
O=C1CC(=O)c2c1cccc2[N+](=O)[O-]	inconclusive: 26.9 µM [inhibitor, single point]	–
O=C(Nc1ccccc1)Nc1cccc2cccnc12	active: 6.01 µM	–
Cc1cc(C(=O)COC(=O)Cc2n[nH]c(=O)c3ccccc23)c(C)n1-c1ccc2c(c1)OCO2	inconclusive: 21.3 µM [inhibitor, partial curve, poor fit]	–
O=C1/C(=C/c2cccs2)SC(=S)N1CCCC(=O)N(CCO)c1ccccc1	–	inactive: 0.532%
Nc1cccc(-c2nc3ccccc3s2)c1	active: 1.2 µM	–
CC(C)NC(=O)Cn1ccc2cc(S(=O)(=O)N3CCCCCC3)ccc21	–	inactive: 3.66%
Cc1cc(C)c(NC(=S)N2CCC(N(C)CC3CCCO3)CC2)c(C)c1 (stereo not drawn)	–	inactive: 7.05%
CN(C)c1cccc(C(=O)NNC(=S)NC2CC3CCC2C3)c1 (stereo not drawn)	inconclusive: 21.3 µM [inhibitor, single point]	–
CC(=O)Nc1ccc2nc(NC(=O)COc3ccc(C)cc3)sc2c1	–	inactive: -6.88%
COc1ccc(-c2cn(-c3ccc(C)cc3)c(S(=O)(=O)CC(=O)Nc3ccccc3)n2)cc1	inconclusive: 15.1 µM [inhibitor, partial curve]	–
C/C(=N\NC(=O)c1ccccc1C)c1cccc([N+](=O)[O-])c1	inconclusive: 37.9 µM [inhibitor, partial curve, poor fit]	–
O=C(Cc1ccc(Nc2nc3ccc(Br)cc3[nH]2)cc1)NCCc1cccs1	inconclusive: 37.9 µM [inhibitor, single point]	–
O=C(Nc1c(C(=O)N2CCN(c3ccccn3)CC2)oc2ccccc12)c1ccc([N+](=O)[O-])cc1	active: 6.75 µM	–
CC(/C=N/NC(=O)Cn1nnc(N)n1)=C\c1ccc(C(C)C)cc1	inconclusive: 23.9 µM [inhibitor, single point]	–
